Patent US20260092096A1 (35PHARMA, published 2026)

T1: activin B (UniProt P09529 293-407)
T1 sequence (looked up): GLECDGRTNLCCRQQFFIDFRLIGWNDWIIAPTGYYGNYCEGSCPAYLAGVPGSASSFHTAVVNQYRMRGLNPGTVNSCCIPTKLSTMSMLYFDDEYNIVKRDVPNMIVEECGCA

T2: activin A (human, UniProt P08476 311-426)
T2 sequence (looked up): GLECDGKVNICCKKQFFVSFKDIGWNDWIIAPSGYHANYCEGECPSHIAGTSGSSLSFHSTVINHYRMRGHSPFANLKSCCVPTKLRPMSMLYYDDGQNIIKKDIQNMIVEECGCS

T3: GDF-11 (UniProt O95390 299-407)
T3 sequence (looked up): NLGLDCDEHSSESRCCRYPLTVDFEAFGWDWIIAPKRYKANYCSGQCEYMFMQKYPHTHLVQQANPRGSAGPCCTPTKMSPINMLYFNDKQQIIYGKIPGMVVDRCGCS

T4: GDF-8 (UniProt O14793 267-375)
T4 sequence (looked up): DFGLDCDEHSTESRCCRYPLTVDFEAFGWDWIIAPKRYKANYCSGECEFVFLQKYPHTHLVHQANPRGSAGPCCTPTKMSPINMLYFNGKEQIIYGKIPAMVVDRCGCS

T5: BMP-9 (UniProt Q9UK05 320-429)
T5 sequence (looked up): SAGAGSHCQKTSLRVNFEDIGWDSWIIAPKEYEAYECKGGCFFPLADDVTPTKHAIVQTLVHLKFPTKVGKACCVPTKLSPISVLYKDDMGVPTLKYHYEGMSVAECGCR

T6: BMP-10 (UniProt O95393 317-424)
T6 sequence (looked up): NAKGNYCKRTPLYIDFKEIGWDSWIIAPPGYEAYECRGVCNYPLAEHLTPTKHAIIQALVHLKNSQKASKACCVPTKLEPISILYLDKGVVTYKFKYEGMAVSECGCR

B1: P1371 (hActRIIB L33W, 14 aa linker, IgG1 Y-DL) (Fc fusion)
chain: ETRECIYYNANWELERTNQSGLERCEGEQDKRWHCYASWRNSSGTIELVKKGCWLDDFNCYDRQECVATEENPQVYFCCCEGNFCNERFTHLPEAGGPEVTYEPPPTGGGGSGGGGSGGGG[human IgG1 Fc with changes left out]
B2: P1373 (hActRIIB L33W, 19 aa linker, IgG1-DL) (Fc fusion)
chain: ETRECIYYNANWELERTNQSGLERCEGEQDKRWHCYASWRNSSGTIELVKKGCWLDDFNCYDRQECVATEENPQVYFCCCEGNFCNERFTHLPEAGGPEVTYEPPPTGGGGSGGGGSGGGGSGG[human IgG1 Fc and a few adjoining residues left out]
B3: P1374 (hActRIIB L33W, 19 aa linker, IgG1 Y-DL) (Fc fusion)
chain: ETRECIYYNANWELERTNQSGLERCEGEQDKRWHCYASWRNSSGTIELVKKGCWLDDFNCYDRQECVATEENPQVYFCCCEGNFCNERFTHLPEAGGPEVTYEPPPTGGGGSGGGGSGGGGSGGGG[human IgG1 Fc with changes left out]
B4: P1389 (hActRIIB G27T, L33W, 19 aa linker, IgG1-DL) (Fc fusion)
chain: ETRECIYYNANWELERTNQSGLERCETEQDKRWHCYASWRNSSGTIELVKKGCWLDDFNCYDRQECVATEENPQVYFCCCEGNFCNERFTHLPEAGGPEVTYEPPPTGGGGSGGGGSGGGGSGG[human IgG1 Fc and a few adjoining residues left out]
B5: P1409 (hActRIIB L14Q, L33W, 19 aa linker, IgG1-DL) (Fc fusion)
chain: ETRECIYYNANWEQERTNQSGLERCEGEQDKRWHCYASWRNSSGTIELVKKGCWLDDFNCYDRQECVATEENPQVYFCCCEGNFCNERFTHLPEAGGPEVTYEPPPTGGGGSGGGGSGGGGSGG[human IgG1 Fc and a few adjoining residues left out]
B6: P1406 (hActRIIB L14E, L33W, 19 aa linker, IgG1-DL) (Fc fusion)
chain: ETRECIYYNANWEEERTNQSGLERCEGEQDKRWHCYASWRNSSGTIELVKKGCWLDDFNCYDRQECVATEENPQVYFCCCEGNFCNERFTHLPEAGGPEVTYEPPPTGGGGSGGGGSGGGGSGG[human IgG1 Fc and a few adjoining residues left out]
B7: P75 (wild type human ActRIIB-ECD-Fc) (Fc fusion)
chain: ETRECIYYNANWELERTNQSGLERCEGEQDKRLHCYASWRNSSGTIELVKKGCWLDDFNCYDRQECVATEENPQVYFCCCEGNFCNERFTHLPEAGGPEVTYEPPPTG[human IgG1 Fc and a few adjoining residues left out]
B8: P751 (hActRIIB L33Y, 14 aa linker, IgG1-DL) (Fc fusion)
chain: ETRECIYYNANWELERTNQSGLERCEGEQDKRYHCYASWRNSSGTIELVKKGCWLDDFNCYDRQECVATEENPQVYFCCCEGNFCNERFTHLPEAGGPEVTYEPPPTGGGGSGGGGSGG[human IgG1 Fc and a few adjoining residues left out]
B9: P750 (hActRIIB L33R, 14 aa linker, IgG1-DL) (Fc fusion)
chain: ETRECIYYNANWELERTNQSGLERCEGEQDKRRHCYASWRNSSGTIELVKKGCWLDDFNCYDRQECVATEENPQVYFCCCEGNFCNERFTHLPEAGGPEVTYEPPPTGGGGSGGGGSGG[human IgG1 Fc and a few adjoining residues left out]
B10: P1182 (hActRIIB L33Y G27D, 14 aa linker, IgG1-DL) (Fc fusion)
chain: ETRECIYYNANWELERTNQSGLERCEDEQDKRYHCYASWRNSSGTIELVKKGCWLDDFNCYDRQECVATEENPQVYFCCCEGNFCNERFTHLPEAGGPEVTYEPPPTGGGGSGGGGSGG[human IgG1 Fc and a few adjoining residues left out]
B11: P1185 (hActRIIB L33Y G27E, 14 aa linker, IgG1-DL) (Fc fusion)
chain: ETRECIYYNANWELERTNQSGLERCEEEQDKRYHCYASWRNSSGTIELVKKGCWLDDFNCYDRQECVATEENPQVYFCCCEGNFCNERFTHLPEAGGPEVTYEPPPTGGGGSGGGGSGG[human IgG1 Fc and a few adjoining residues left out]
B12: P1229 (hActRIIB L33W, 14 aa linker, IgG1-DL) (Fc fusion)
chain: ETRECIYYNANWELERTNQSGLERCEGEQDKRWHCYASWRNSSGTIELVKKGCWLDDFNCYDRQECVATEENPQVYFCCCEGNFCNERFTHLPEAGGPEVTYEPPPTGGGGSGGGGSGG[human IgG1 Fc and a few adjoining residues left out]

Biological target: T1, activin B
Assay: cell-based or functional assay

IC50, TGFβ-reporter HEK293 cell-based neutralization assay	Binder
2.7 nM	B1
2.9 nM	B2
1.9 nM	B3
1 nM	B4
1.9 nM	B5
> 20 nM	B6
1.4 nM	B7
0.8 nM	B8
1 nM	B9
7.7 nM	B10
5.2 nM	B11
1.8 nM	B12

Biological target: T2, activin A
Assay: cell-based or functional assay

IC50, TGFβ-reporter HEK293 cell-based neutralization assay	Binder
0.56 nM	B1
0.53 nM	B2
0.53 nM	B3
0.52 nM	B4
0.55 nM	B5
1.7 nM	B6
2.3 nM	B7
0.82 nM	B8
0.76 nM	B9
0.85 nM	B10
1 nM	B11
0.7 nM	B12

Biological target: T3, GDF-11
Assay: cell-based or functional assay

IC50, TGFβ-reporter HEK293 cell-based neutralization assay	Binder
0.6 nM	B1
0.46 nM	B2
0.4 nM	B3
0.39 nM	B4
0.39 nM	B5
0.37 nM	B6
0.75 nM	B7
0.25 nM	B8
0.51 nM	B9
0.46 nM	B10
0.44 nM	B11
0.39 nM	B12

Biological target: T4, GDF-8
Assay: cell-based or functional assay

IC50, TGFβ-reporter HEK293 cell-based neutralization assay	Binder
0.23 nM	B1
0.4 nM	B2
0.37 nM	B3
0.4 nM	B4
0.48 nM	B5
0.33 nM	B6
0.67 nM	B7
0.3 nM	B8
0.58 nM	B9
0.37 nM	B10
0.33 nM	B11
0.33 nM	B12

Biological target: T5, BMP-9
Assay: cell-based or functional assay

fold lower BMP-9 neutralization potency than P75	Binder
> 100 fold	B2
> 100 fold	B12

Biological target: T5, BMP-9
Assay: cell-based or functional assay
Remark: another data set of the same source

IC50, BMP-reporter HepG2 cell-based neutralization assay	Binder
> 1000 nM	B2
> 100 nM	B4
> 1000 nM	B5
> 1000 nM	B6
3 nM	B7
18 nM	B8
21 nM	B9
265 nM	B10
791 nM	B11
> 1000 nM	B12

Biological target: T6, BMP-10
Assay: cell-based or functional assay

IC50, BMP-reporter HepG2 cell-based neutralization assay	Binder
> 100 nM	B2
> 100 nM	B4
> 100 nM	B5
> 100 nM	B6
2 nM	B7
2.4 nM	B8
4.7 nM	B9
2.4 nM	B10
2.3 nM	B11
> 100 nM	B12
